Laboratory results published in PubChem BioAssay AID720506 (National Center for Advancing Translational Sciences (NCATS), 2013).
In all, about 2,300 compounds went through this assay and about 95 (4%) were called active. The inconclusive results got no clear call from the source; some entries with a clear call stand among them for comparison. Calls follow the shape of the dose curve; as a rule, active = well fitted activation curve with a large enough effect; inconclusive = small, poorly fitted or top-dose-only effect; inactive = flat fitted curve, though single readings scatter. Potencies beside an inconclusive call are fits to weak or partial responses and may not hold up.
Also: nearly all actives have a fitted effect of over 70% in size.
Potency is read from the fitted curve at half-maximal effect; tags tell the direction and shape of the fitted curve.

The compounds below were run against D(3) dopamine receptor (Homo sapiens) (UniProt P35462) (assay: qHTS of D3 Dopamine Receptor Agonist: D3 Dopamine Receptor B-arrestin Agonist Confirmatory Assay). Conditions: DiscoveRx D3 beta-arrestin cells, luminescence, 90 min; activation: at 76.9 µM (top of the series).
Chain of UniProt P35462 (P35462 whole entry, looked up): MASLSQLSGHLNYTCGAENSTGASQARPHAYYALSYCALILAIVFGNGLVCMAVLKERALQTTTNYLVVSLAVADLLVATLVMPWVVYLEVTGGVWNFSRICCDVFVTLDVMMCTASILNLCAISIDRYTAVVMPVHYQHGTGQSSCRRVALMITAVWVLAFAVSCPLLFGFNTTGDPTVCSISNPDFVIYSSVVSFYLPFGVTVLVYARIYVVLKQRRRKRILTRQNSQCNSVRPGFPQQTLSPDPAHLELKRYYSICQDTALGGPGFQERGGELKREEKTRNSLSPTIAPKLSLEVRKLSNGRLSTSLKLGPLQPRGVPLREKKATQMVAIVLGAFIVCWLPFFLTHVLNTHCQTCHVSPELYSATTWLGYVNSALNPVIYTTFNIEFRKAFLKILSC
In short: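 DiscoveRx D3 β-arrestin cells (1500/well) were cultured overnight at 37 °C, then given 23 nl compound by pintool (dopamine as control) for 90 min at 37 °C. DiscoveRx detection reagent was added for 30–60 min at room temperature, and luminescence was read; activation is the scored outcome.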
For O=C(CCN1CCN(c2ccccn2)CC1)Nc1ccc(F)cc1, the Potency was inconclusive: 501 nM [activator, full curve, poor fit]. With CC(OC(=O)c1ccc(-n2cnnn2)cc1)C(=O)Nc1ccc(F)c(F)c1F (configuration not stated) the Potency was “inactive”. With O=C(c1ccco1)N1CCN(CCCCOc2cccc3ccccc23)CC1 the Potency was inconclusive: 4470 nM [activator, partial curve, poor fit]. In the case of Cn1c(CCN2CCN(c3ccccn3)CC2)nc2cc(NC(=O)COc3ccc([N+](=O)[O-])cc3)ccc21, the Potency is reported as “inactive”. CCCCn1c(/C=C/c2ccco2)nc2ccccc21 was tested, and the Potency was “inactive”. In the case of O=C(c1ccco1)N1CCN(Cc2cccnc2)CC1, the Potency is reported as inconclusive: 50100 nM [activator, single point]. In the case of CCCC(c1nnnn1Cc1ccc(OC)cc1)N1CCN(c2ccccc2)CC1 (configuration not stated), the Potency is reported as “inactive”. CN(C)S(=O)(=O)c1ccc(Cl)c(NC(=O)CN2CCN(c3ccccn3)CC2)c1 was tested, and the Potency was inconclusive: 35500 nM [activator, partial curve, poor fit]. COc1cccc(CN2CCN(C(=O)c3ccco3)CC2)c1 was tested, and the Potency was “inactive”. For CCn1c(N2CCN(S(=O)(=O)c3ccccc3)CC2)nc2ccccc21, the Potency was inconclusive: 15800 nM [activator, full curve]. In the case of N#C/C(=C/c1ccc(N2CCOCC2)o1)c1nc2ccccc2[nH]1, the Potency is reported as inconclusive: 35500 nM [activator, partial curve, poor fit]. In the case of Fc1ccccc1N1CCN(CCCNc2ccc3nncn3n2)CC1, the Potency is reported as inconclusive: 282 nM [activator, full curve, poor fit]. For COC(=O)c1cccc(NC(=O)CN2CCc3ccccc3C2)c1, the Potency was inconclusive: 28200 nM [activator, partial curve]. In the case of N#Cc1ccc(NC(=O)CN2CCN(c3ccccn3)CC2)cc1, the Potency is reported as inconclusive: 7940 nM [activator, full curve]. O=S(=O)(c1ccc(NC(=S)N/N=C/c2c3ccccc3cc3ccccc23)cc1)N1CCOCC1 was tested, and the Potency was “inactive”. In the case of COc1ccc(C2c3c(-c4ccccc4)n[nH]c3C(=O)N2c2ccc(C(=O)O)cc2)cc1 (configuration not stated), the Potency is reported as “inactive”. For O=C(CCN1CCN(c2ccccc2)CC1)NNC(=O)Cc1c(F)cccc1Cl, the Potency was inconclusive: 224 nM [activator, full curve, poor fit]. In the case of Cc1ccc(CN2CCN(C(=O)c3ccco3)CC2)cc1, the Potency is reported as inconclusive: 1120 nM [activator, full curve]. O=C(/C=C/c1ccccc1[N+](=O)[O-])NNC(=O)c1ccncc1 was tested, and the Potency was “inactive”. In the case of CCC(NC(C)C)C(O)c1ccc(O)c2[nH]c(=O)ccc12 (configuration not stated), the Potency is reported as inconclusive: 3160 nM [activator, partial curve, poor fit]. For OC(COCC1COc2ccccc2O1)CN1CCN(c2ccccn2)CC1 (configuration not stated), the Potency was inconclusive: 1410 nM [activator, full curve]. In the case of COc1ccc(C)cc1NC(=O)CCN1CCN(c2ccccc2)CC1, the Potency is reported as inconclusive: 501 nM [activator, full curve, poor fit]. O=C(CCN1CCN(c2ccccc2)CC1)Nc1ccc2c(c1)OCO2 was tested, and the Potency was inconclusive: 447 nM [activator, full curve]. CCOc1ccc(CN2CCN(C(=O)c3ccco3)CC2)cc1 was tested, and the Potency was inconclusive: 2820 nM [activator, full curve]. O=c1cc(CN2CCN(c3ccc(O)cc3)CC2)nc2scc(-c3ccccc3)n12 was tested, and the Potency was active: 35500 nM. For Cn1c(=O)cc(SCC(=O)NCCCN2CCN(c3ccc(F)cc3)CC2)c2ccccc21, the Potency was “inactive”. With OC(COCc1ccccc1)CN1CCN(c2ccccc2F)CC1 (configuration not stated) the Potency was inconclusive: 224 nM [activator, full curve]. O=C(NCCN1CCN(c2ccccc2)CC1)C1CCN(S(=O)(=O)N2CCOCC2)CC1 was tested, and the Potency was inconclusive: 141 nM [activator, full curve, poor fit]. In the case of CN(C)c1ccc(NC(=O)CCN2CCN(c3ccccn3)CC2)cc1, the Potency is reported as inconclusive: 355 nM [activator, full curve, poor fit]. With CC1(C)Cc2cccc(OCC(O)CN3CCN(c4ccccn4)CC3)c2O1 (configuration not stated) the Potency was inconclusive: 1780 nM [activator, full curve]. In the case of NC(=O)c1ccc(NC(=O)CN2CCN(C(=O)c3ccco3)CC2)cc1, the Potency is reported as inconclusive: 17800 nM [activator, full curve]. C/C(=N\NC(=S)NC1CCCCC1)c1ccc(C)o1 was tested, and the Potency was “inactive”. In the case of Cc1cc(-c2ccc(C)c(S(=O)(=O)NCCCN3CCN(c4ccccc4F)CC3)c2)on1, the Potency is reported as inconclusive: 56200 nM [activator, single point]. C[C@@H](CN1CCC(Cc2ccccc2)CC1)[C@@H](O)c1ccc(O)cc1 was tested, and the Potency was “inactive”. With COc1ccc(NC(=O)NCCCN2CCN(c3ccccc3F)CC2)cc1 the Potency was inconclusive: 398 nM [activator, full curve]. In the case of COc1cc(O)c(C(CCN2CCN(c3ccccc3)CC2)c2ccc3c(c2)OCO3)c(OC)c1 (configuration not stated), the Potency is reported as “inactive”. For CCOc1ccc(/C=N/NC(=O)c2cc(-c3ccccc3)nc3ccccc23)cc1O, the Potency was “inactive”. In the case of O=C(NCC(c1ccco1)N1CCN(c2ccccc2)CC1)C(=O)NC1CC1 (configuration not stated), the Potency is reported as inconclusive: 39800 nM [activator, partial curve, poor fit]. For CC(C)(C)C1CCC(OCC(O)CN2CCN(c3ccccc3)CC2)CC1 (configuration not stated), the Potency was active: 355 nM. For O=C(CN1CCN(c2ncccn2)CC1)Nc1ccccc1-n1cccc1, the Potency was “inactive”. In the case of c1ccc(N2CCN(C3CC4CCC3C4)CC2)cc1 (configuration not stated), the Potency is reported as “inactive”. With CCOc1ccc(NC(=O)CCN2CCN(c3ccccc3)CC2)cc1 the Potency was inconclusive: 141 nM [activator, full curve, poor fit]. In the case of COc1ccc(OCCN2CCN(C(=O)c3ccc(OC)cc3)CC2)cc1, the Potency is reported as active: 447 nM. With CC(CCN1CCN(c2ccccn2)CC1)c1ccccc1 (configuration not stated) the Potency was inconclusive: 794 nM [activator, full curve, poor fit]. For Cn1c2c(c(=O)n(C)c1=O)C(C(F)(F)F)(C(F)(F)F)N=C(c1ccc(Cl)cc1)N2, the Potency was inconclusive: 25100 nM [activator, partial curve]. With c1ccc(N2CCN(Cc3ccsc3)CC2)nc1 the Potency was inconclusive: 355 nM [activator, full curve]. For Nc1nc2ccccc2n1/N=C/c1ccc([N+](=O)[O-])s1, the Potency was inconclusive: 44700 nM [activator, partial curve, poor fit]. With CC1CCN(S(=O)(=O)c2ccc(NC(=O)CN3CCN(c4ccccc4)CC3)cc2)CC1 the Potency was active: 2240 nM. For Cc1cccc(N2CCN(CC(O)COCc3cccs3)CC2)c1C (configuration not stated), the Potency was active: 316 nM. For Fc1ccccc1N1CCN(Cc2cnc(Cl)s2)CC1, the Potency was inconclusive: 398 nM [activator, full curve]. In the case of O=C(NCCN1CCN(c2ccccc2)CC1)C1CCN(S(=O)(=O)c2cccc3nsnc23)CC1, the Potency is reported as inconclusive: 708 nM [activator, full curve]. With c1ccc(CN2CCN(c3ncccn3)CC2)cc1 the Potency was inconclusive: 1260 nM [activator, full curve, poor fit]. In the case of COC(=O)c1[nH]c2ccccc2c1NC(=O)CN1CCN(C(=O)c2ccco2)CC1, the Potency is reported as inconclusive: 15800 nM [activator, partial curve]. Cn1c(=O)cc(OCC(=O)NCCCN2CCN(c3ccccc3F)CC2)c2ccccc21 was tested, and the Potency was “inactive”. O=S(=O)(NCC(c1cccnc1)N1CCN(c2ccccc2)CC1)c1cccs1 (configuration not stated) was tested, and the Potency was “inactive”. COc1ccc(Nc2nc(N)nc(CN3CCN(c4ccccn4)CC3)n2)cc1 was tested, and the Potency was “inactive”. Cn1c(=O)c(=O)n(C)c2cc(S(=O)(=O)NCCN3CCN(c4ccccc4F)CC3)ccc21 was tested, and the Potency was inconclusive: 562 nM [activator, full curve]. O=C(Nc1ccn(CC(=O)N2CCN(c3ccccn3)CC2)c(=O)n1)OCc1ccccc1 was tested, and the Potency was “inactive”. C=CCN1CCc2nc(N)sc2CC1 was tested, and the Potency was active: 89.1 nM. With Cn1nnnc1Sc1ncnc2scc(-c3ccc(F)cc3)c12 the Potency was “inactive”. For CC(C)C(=O)Nc1ccc2c(c1)nc(CCN1CCN(c3ccccc3)CC1)n2C, the Potency was inconclusive: 1120 nM [activator, full curve]. For Cc1cc(-c2n[nH]c(=S)n2/N=C/c2sccc2C)n[nH]1, the Potency was “inactive”. O=C(CCN1CCN(c2ccccc2)CC1)N/N=C/c1ccc(O)c(O)c1O was tested, and the Potency was inconclusive: 20000 nM [activator, full curve]. COc1ccc(-c2c(C#Cc3ccsc3)c3cc(-c4ccc(OC)c(F)c4)ccc3n2C)cc1 was tested, and the Potency was “inactive”. With OC(COc1ccc(Cl)c2ccccc12)CN1CCN(c2ccccn2)CC1 (configuration not stated) the Potency was active: 14100 nM. In the case of c1cnc(N2CCN(Cc3ccc4c(c3)OCO4)CC2)nc1, the Potency is reported as inconclusive: 141 nM [activator, full curve]. In the case of CCCS(=O)(=O)N1CCCC(C(=O)NCCCN2CCN(c3cccc(Cl)c3)CC2)C1 (configuration not stated), the Potency is reported as inconclusive: 17800 nM [activator, partial curve]. For COc1ccccc1NC(=O)c1cc([N+](=O)[O-])ccc1NCCN1C(=O)CCC1=O, the Potency was “inactive”. In the case of COc1ccccc1OCC(=O)NCCS(=O)(=O)N1CCN(c2ccccc2)CC1, the Potency is reported as inconclusive: 28200 nM [activator, partial curve]. With COc1ccc(CN2CCN(c3ncccn3)CC2)c(C)c1C the Potency was inconclusive: 1120 nM [activator, full curve]. For O=C(Cn1cnc2ccccc2c1=O)NCC(=O)N1CCN(Cc2ccc3c(c2)OCO3)CC1, the Potency was “inactive”. Cc1c(C)n(C)c2ccc(C(=O)N3CCN(c4ccccn4)CC3)cc12 was tested, and the Potency was inconclusive: 28200 nM [activator, full curve, poor fit].
